Laboratory results taken from the RNAGym collection of RNA variant scans (doi:10.7554/elife.90254).
Read counts are not given, so values of variants with three or more changes are uncertain.

B1: LINE1-mini (parent)
chain: GGCAGAGCUCAACACAGCGUGGCAAAGUGGCUGUGGCUAGACUGCC

Variants of: B1
Experiment: self-cleavage, relative activity (ratio to wild type); higher = more cleavage; in vitro, sequencing; the parent is a self-cleaving ribozyme

Row | Variant | self-cleavage
1 | U9C G33U A41G G44C C46U | 0.01
2 | C10A A16G C45U | 0.02
3 | C10A A11C G27C U32G | 0.02
4 | U9G C18A G33U U34A | 0.04
5 | U9G G17C U32G G36C A41U | 0.04
6 | U9G G19U C46G | 0.06
7 | U9G C10U C13A C46A | 0.06
8 | U9G C10G C18A G30C | 0.01
9 | U9G A24G A25G | 0.03
10 | U9C G17A G19A C42A U43A | 0.04
11 | U9G C18A G27U | 0
12 | U9G A16C A24U U43C | 0.02
13 | C10A C13G C23G | 0.03
14 | U9G U38G G40C | 0.02
15 | U9G C15U A25U U32A | 0.1
16 | C10A C13U C45A | 0.06
17 | C10A C13A G30C | 0
18 | C10A C13A G30U | 0.04
19 | C10A A14C G17U | 0.03
20 | U9C C23U C45A | 0
21 | C10A A11G G35U | 0.01
22 | U9G C23G U32G | 0.02
23 | U9G C10G C18A U28C G30C C42G | 0.01
24 | C10A A16G G30U C31A | 0.04

Row | Variant | self-cleavage
25 | U9G C31U C45A | 0.08
26 | U9G G29U C42A | 0.05
27 | C10A C15U G21C A25C | 0.08
28 | U9G G19A G29A C46G | 0.28
29 | U9G G22U A24U U32A C37U C45U | 0.05
30 | C10A A26C C37U | 0.02
31 | C10A A26U U28A G40C | 0.01
32 | U9G A12G G22C C37A | 0.13
33 | C10A A24G G27U U28G G33U C45A | 0.01
34 | C10A C13U G21U G29C U32C C42U U43A | 0
35 | U9G C13U U20A G30A | 0.14
36 | C10A A12G G19C U20C | 0.04
37 | U9G G17A G36A C46U | 0.05
38 | U9G G22U C31G A41U C46U | 0.05
39 | U9C G22U A24C C31A U43A | 0.01
40 | C10A A12G A26G | 0.02
41 | U9C G17C A25C G35A U38A | 0.01
42 | U9C C37U C46A | 0.01
43 | U9G C15A A25G G40A | 0.02
44 | U9G U28A C42G C45U | 0.06
45 | U9G C10A A25G G27C C42G G44A | 0
46 | C10A C13A G17U U32G C45G | 0
47 | C10A C23A U38G | 0.07
48 | C10A C18G U20G | 0.01

Row | Variant | self-cleavage
49 | C10A A11G A26C G30A U34C A41U | 0.01
50 | U9C U20C U32A G40U A41G | 0.02
51 | U9C G22U G30A | 0.03
52 | U9G G17A G40U | 0.01
53 | U9C C23A C31G | 0.02
54 | U9C C15G A24U U28C | 0.02
55 | U9C G40A A41G | 0.01
56 | U9G A12U C42G G44A | 0.07
57 | U9G G22A A26U G30C | 0.03
58 | C10A A14G C23A A24G | 0.02
59 | C10A A12C A16G | 0.03
60 | C10A A24U G33U | 0
61 | C10A A11C A16G G21U A26G G36U U38G | 0.01
62 | C10A A12U G22U A24G A26C | 0.01
63 | C10A A11G G19U C46U | 0.01
64 | C10A A11C U20C U28C G44A | 0
65 | C10A C18A A39G | 0.02
66 | U9C C23A U43G G44U | 0.03
67 | C10A C13G G30A | 0
68 | C10A C15A G19A C31U G40U | 0.01
69 | U9G G19C C23G G27U | 0.04
70 | U9C G33U G36A | 0.05
71 | U9G G21C C23G U34A U38C C42A | 0.02
72 | U9G C31U G35A C42A | 0.02

Row | Variant | self-cleavage
73 | U9C U20G G21A A26U C31A | 0.02
74 | U9C C15G G36A U43G | 0.02
75 | U9G C13A G27U | 0.12
76 | U9G A12U G17A G36U C37A | 0.04
77 | C10A A12C G21U A24G C37A | 0
78 | C10A A14U C15A U20C G40U C42U C46A | 0.04
79 | C10A A39U C46U | 0.35
80 | C10A C15U C31G C45U | 0.02
81 | U9G C13U C46A | 0.14
82 | U9G C18A A25U G33A | 0.12
83 | C10A C15A G17C G21U | 0.04
84 | C10A C18G G19C G21C | 0.01
85 | C10A A14C U20C C23A G30U | 0.01
86 | U9C G21U G33A | 0.03
87 | C10A A14U G17U G22C C42U | 0
88 | U9G U38C G44U | 0.05
89 | U9G C13A G21U G35C | 0.03
90 | U9G G21C C31U | 0.03
91 | U9C G40U U43A | 0.02
92 | U9C U20C G21C | 0.08
93 | U9C G22C G30C | 0.03
94 | C10A A39C U43C | 0.02
95 | C10A A11G A41C G44U | 0.03
96 | C10A C13U G19U | 0.01

Row | Variant | self-cleavage
97 | C10A A26U C46A | 0.05
98 | U9G C15A G40C | 0.07
99 | U9G C10U C37U A41G | 0.01
100 | C10A A24G G27C | 0.04
101 | U9C C18A U32A G35C | 0.01
102 | C10A A24U A26G | 0.34
103 | U9G C18G G33C | 0.11
104 | U9G G21C G22A G44U | 0.07
105 | U9G A12C G33U | 0.01
106 | C10A A14C U28C C45G | 0.01
107 | U9C C18G U28C G33U G35A G36A C42U | 0.01
108 | C10A C18A A26C U32C G36U | 0
109 | U9G G29A A41U | 0.11
110 | C10A A12C G21C G22C U28G A39U | 0
111 | C10A C18A U38A | 0.06
112 | U9G C37U C46A | 0.08
113 | C10A C15U G29U | 0.06
114 | C10A C15U G27A C42G | 0.02
115 | U9G G21A A26U U28A | 0.07
116 | C10A A26G C46G | 0.03
117 | U9C C23U A39U | 0.21
118 | C10A C13G C31A G44U | 0.04
119 | C10A C15U G29U C46A | 0.04
120 | U9C C37U C42U | 0.01

Row | Variant | self-cleavage
121 | U9G G17U G19U G44C | 0.04
122 | U9G G29A G40C | 0.05
123 | U9G A12U G27C G35C | 0.01
124 | C10A A24C A39U | 0.14
125 | C10A A14G C18U U28G | 0.01
126 | U9G G30U C31A | 0.04
127 | C10A C13G G17C G40C G44U | 0.02
128 | C10A C23A C45G | 0.01
129 | C10A A25C A26C G30U C31A | 0.06
130 | U9G C10U A41U | 0.03
131 | U9G A26U U28G G35A | 0.04
132 | U9G G40C U43C C45G | 0.04
133 | C10A A14C G21A G27U U34A G44A | 0.01
134 | U9G A12U C37U | 0.06
135 | C10A A11C G29U | 0.04
136 | C10A A11C C13U U34G A39C | 0.06
137 | C10A C13A A26U G29C | 0.01
138 | U9C C15A A16C C18U G29C C45U | 0.02
139 | U9G C13U U32G | 0.01
140 | C10A A24G C46A | 0.03
141 | C10A A26G G27U G40U | 0.03
142 | U9G C13A U34G | 0.08
143 | C10A C13A G40U | 0.01
144 | U9G A12U G36A | 0.03

Row | Variant | self-cleavage
145 | C10A C18A G19A G22A C23G A24C A26U G27C C45A | 0.01
146 | C10A A12C C13U U28C | 0.01
147 | C10A A25U G35A C42G U43G | 0.01
148 | C10A A14C C15U C18U G19U G35C | 0.01
149 | U9C G22C C31U A41U | 0.02
150 | U9G G27A U28G C45U | 0.14
151 | U9G U34G G44U | 0.02
152 | C10A C13U C18U U20C G27A G35U | 0.02
153 | U9G C10A G27U G33U | 0.11
154 | C10A A16U U32C | 0.03
155 | C10A C15U C37G C42A | 0.28
156 | C10A A11U G36C | 0.02
157 | U9C G27A G29A | 0.03
158 | U9C G27A G29U | 0.03
159 | U9G A39G C46G | 0.01
160 | U9G A11U G19A G36A C37G | 0.01
161 | C10A A12U C13G C15A G17A | 0.01
162 | U9C G19A C23G U38G | 0.01
163 | U9G G33C C37G | 0.11
164 | C10A A12G A25C | 0
165 | C10A A14U A41C | 0.02
166 | C10A C13U A16G C42G C46U | 0.01
167 | C10A A12C A41C | 0.02
